Among all 320,000 compounds or so, about 7,600 (2.4%) were called active. This list was built around the results that the source calls inconclusive (neither active nor inactive); the mix of calls is not that of the screen. Calls follow the shape of the dose curve; as a rule, active = well fitted activation curve with a large enough effect; inconclusive = small, poorly fitted or top-dose-only effect; inactive = no such curve, though single readings can be large or run the other way. No potency is given beside an inconclusive call; the fits are too rough.
Test: qHTS Assay for NPC1 Promoter Activators; also: nearly all actives have a fitted effect of over 60% in size;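 as to activation: reporter is driven by a mutant NPC1 promoter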
Conditions: Huh7 NPC1 promoter luciferase reporter, 24 h; series mostly up to 9.22 µM
In short: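 NPC1 promoter–luciferase Huh7 cells; 24 h compound; luminescence.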
Potency is read from the fitted curve at half-maximal effect; tags tell the direction and shape of the fitted curve.

SMILES	Potency
Cc1ccc2cc3cc(C(=O)NC4CCCCC4)oc3nc2c1	inconclusive [activator, partial curve]
O=C(Nc1ccc(N2CCOCC2)c(Cl)c1)c1ccc(F)cc1	inconclusive [activator, partial curve]
O=C1c2ccccc2COc2ccc(O)cc21	inactive
O=C(/C=C/NNC(=O)c1ccc(Cl)cc1)c1ccccc1	inactive
COc1cc(NC(=O)CN2C(=O)c3ccccc3S2(=O)=O)c(OC)cc1Cl	inactive
O=C(Nc1cnc2sc3c(n2c1=O)CCCC3)c1ccc(F)cc1	inconclusive [activator, single point]
COc1cccc(CC(=O)Nc2nc(-c3cc(OC)ccc3OC)cs2)c1	inactive
CC1Cc2cc(/C=C3/SC(=S)N(C)C3=O)ccc2O1 (centres undefined)	inconclusive [activator, single point]
Cc1cnc([N+](=O)[O-])n1CCOC(=O)NC(=O)c1c(F)cccc1F	inactive
Cc1ccc(S(=O)(=O)N2CCCCC2)cc1NC(=O)COC(=O)C1=COCCO1	inactive
Cc1sc(NC(=O)CN2CCOCC2)c(C#N)c1C	inactive
C/C(=C\C(=O)c1ccc(Cl)cc1)NCc1ccc2c(c1)OCO2	inactive
CCn1c(C)cc(/C=C2\NC(=O)N(Cc3ccc(Cl)cc3)C2=O)c1C	inactive
N#Cc1ccccc1NC(=O)c1ccc2c(c1)OCO2	inconclusive [activator, partial curve]
NC1=NS(=O)(=O)NC1c1cccc(Cl)c1 (centres undefined)	inactive
Cc1ccc(N/C=C/C(=O)c2ccccc2)cc1C	active: 2 µM
O=C(Nc1ccc(Br)cc1)C1Cc2ccccc2O/C1=N\O (centres undefined)	active: 3.16 µM
Cc1ccc(NC(=O)/C(CN(C)C)=N\O)cc1	inconclusive [activator, single point]
CCOC(=O)c1ccc(NC(=O)c2nn(C)cc2Br)cc1	inconclusive [activator, partial curve]
CCOC(=O)c1ccc(NC(=S)Nc2ccccn2)cc1	inconclusive [activator, partial curve]
COc1cc(Cl)ccc1OCc1cc(C(=O)N2C[C@]3(C)C[C@H]2CC(C)(C)C3)no1	inconclusive [activator, single point]
O=C(NCc1ccc(F)cc1)c1c2c(nc3ccccc13)CCC2	inconclusive [activator, partial curve]
N#CCc1nc(-c2cc3ccccc3oc2=O)cs1	inactive
O=C(c1cnsn1)N1CCC(CO)(Cc2cccc(F)c2)CC1	inconclusive [activator, single point]
CCOC(=O)C(CC(=O)c1ccccc1)CC(=O)c1ccccc1	inconclusive [activator, single point]

SMILES	Potency
COc1cccc(C(=O)Nc2ccc3[nH]ncc3c2)c1OC	inconclusive [activator, partial curve]
CCCN(CCC)c1ccc(/C=C/c2ccc3cc(OCC)ccc3n2)cc1	inconclusive [activator, partial curve]
O=C(Nc1ccccc1F)NC1CCCCCCC1	inconclusive [activator, partial curve]
O=C(CSc1nc2ccccc2[nH]1)c1cccs1	active: 1.26 µM
C/C(=N\NC(=O)c1cc2ccccc2cc1O)c1ccccn1	active: 2 µM
O=C1/C(=C\c2ccccc2)CCc2c1[nH]c1ccccc21	inconclusive [activator, single point]
CC(=O)c1cccc(NC(=O)NCc2ccccn2)c1	inconclusive [activator, partial curve]
Clc1ccc(OCCCN2CCCCC2)c(Br)c1	inconclusive [activator, partial curve]
CCOC(=O)c1cnc2cc3c(cn2c1=O)CCCC3	inconclusive [activator, partial curve]
COc1ccc(CC(=O)c2ccc(OC3OC(CO)C(O)C(O)C3O)cc2O)cc1 (centres undefined)	inconclusive [activator, single point]
COc1ccc(-c2oc(NC(=O)CSc3nncn3C)c(C#N)c2-c2ccc(OC)cc2)cc1	inactive
O=c1c2[nH]c3ccc(F)cc3c2ncn1CCC1=CCCCC1	inconclusive [activator, partial curve]
Cc1ccccc1C(=O)Oc1ccc2ccc(O)cc2c1	inconclusive [activator, single point]
CCOc1ccc(OCc2ccc(C(=O)Nc3ccc(Cl)cn3)o2)cc1	inconclusive [activator, partial curve]
Cn1cccc1/C=C1\SC(=O)N(c2ccc(O)cc2)C1=O	inconclusive [activator, single point]
O=C(NCc1cccs1)c1cc2c(s1)CCCC2	inconclusive [activator, partial curve]
Cc1ccc2nc(-c3ccc(NC(=O)CN4C(=O)c5ccccc5C4=O)cc3)sc2c1	inconclusive [activator, partial curve]
COc1ccc(NC(=S)NC(=O)c2ccccc2)cn1	inconclusive [activator, partial curve]
CC1CCCN(c2ccc3nc4ccccc4c(=O)n3n2)C1 (centres undefined)	inconclusive [activator, partial curve, poor fit]
C/C(=N\NC(=O)c1ccccc1F)c1ccccn1	inconclusive [activator, partial curve]
CC1CCCCN1C(=O)CSc1nnc(-c2ccccc2O)o1 (centres undefined)	active: 2.82 µM
CCc1ccc(-c2ccc(C(=O)O)cc2)nc1	inconclusive [activator, partial curve]
Cc1cc(-c2ccccc2N)n[nH]1	inconclusive [activator, single point]
O=C(O)COc1ccc(/C=N/NC(=O)c2ccc(-c3csc(Nc4ccc(Cl)cc4)n3)cc2)cc1	inconclusive [activator, partial curve]
